Measurements reported in PubChem BioAssay AID662 (National Center for Advancing Translational Sciences (NCATS), 2007).
Among all 71,000 compounds or so, about 1,800 (2.5%) were called active. The shares of active, inactive and inconclusive entries below differ from those in the screen. Calls come from the whole dose curve; as a rule, active = well fitted activation curve with a large enough effect in the signal ratio, with a control signal flat (not every such curve was filed as active); inconclusive = small, poorly fitted or top-dose-only effect, or effect the other way, or a change in a side signal; inactive = flat fitted curve, though single readings scatter; the % refers to the signal ratio. Where the call is inconclusive, the potency comes from a doubtful curve fit.

Assay: Cell signaling CRE-BLA (Fsk stim); for activity change, negative = inhibition: % of control where 0% means no effect
Settings: CHO CRE-bla reporter (cAMP response element driving beta-lactamase), forskolin EC10, beta-lactamase ratio; activity change, negative = inhibition: at 38.2 µM (top of the series) unless noted
How it was run: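 Reporter-gene assay: CHO cells with beta-lactamase behind cAMP responsive elements, co-treated with compound and EC10 NKH 477 for 3 hours at 37 degrees Celsius. Activity came from the 460/530 nm CCF4 emission ratio.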
Potency is the fitted concentration of half-maximal effect; tags give direction and shape of the fitted curve.

Compound | activity change, negative = inhibition | Potency
CC(C)C(=O)c1cn(Cc2ccccc2C#N)c2ccccc12 | inactive | –
c1ccc2nc(N3CCNCC3)ccc2c1 | inactive | –
Cl/C=C/CCl | inactive | –
CN1C(=O)N(C)C(=O)C2(Sc3ccccc3C2=O)C1=O | inactive | –
O=NN(c1ccccc1)c1ccccc1 | inactive | –
Cc1ccc(CCN2CC(C(=O)N3CCC4(CC3)OCCO4)CC2=O)cc1 (stereo not drawn) | inconclusive: 14.7% | –
CC(=O)c1c(C)n(CC2CCCO2)c2ccc(O)cc12 (stereo not drawn) | inactive | –
Nc1c(C(=O)NCCN2CCOCC2)c2nc3ccccc3nc2n1Cc1ccco1 | – | inconclusive: 7.94 µM [rising, partial curve]
Cc1ccccc1[N+](=O)[O-] | inactive | –
CCCC/C(C)=C/[C@@H](NP(=O)(c1ccccc1)c1ccccc1)c1ccccc1 | inconclusive: -23.3% [cytotoxic] | –
COc1ccc(P2(=O)Nc3ccccc3N2)cc1 | – | inconclusive: 15.8 µM [rising, single point]
COc1cc(CN2CCN(C(=O)COc3ccccc3)CC2)cc(OC)c1OC | inconclusive: 28% [at 7.6 µM] | –
CCCC(C)C(=O)NC1CCSC1=O (stereo not drawn) | inconclusive: -12% [at 7.6 µM] | –
Oc1cccc2cccnc12 | inconclusive: -1.93% [at 7.6 µM] | –
Cc1ccc2c(c1)C(c1ccccc1)NCC(=O)N2 (stereo not drawn) | inactive | –
CCCCc1ccc(C(=O)O)nc1 | inactive | –
CCC(=NCc1ccc2c(c1)OCO2)c1c(O)n(C2CCCCC2)c(=O)[nH]c1=O | – | inconclusive: 0.0316 µM [rising, full curve, poor fit]
Cc1ccccc1NC1=NCCCS1 | – | inconclusive: 3.98 µM [falling, single point]
CC1N(P(=O)(c2ccccc2)c2ccccc2)CC(O)(c2ccccc2)CC12CC2 (stereo not drawn) | inconclusive: 1.07% | –
CN(C)C(=O)Oc1ccc(C(=O)c2ccccc2)cc1 | inconclusive: -29% [at 7.6 µM] | –
CN(CC1COc2ccccc2O1)c1nc(-c2cccnc2)nc2ccccc12 (stereo not drawn) | – | inconclusive: 2 µM [rising, partial curve]
O=C(CCCOc1ccc(Cl)cc1Cl)N1CCC2(CC1)OCCO2 | inconclusive: 21.4% | –
COC(=O)[C@H](N)CCCN=C(N)N[N+](=O)[O-] | inactive | –
C[N+]1([O-])[C@H]2CC[C@H]1CC(OC(=O)[C@@H](CO)c1ccccc1)C2 (stereo partly drawn) | inactive: -1.12% [at 7.6 µM] | –
COc1ccc2c(c1O)-c1c(OC)c(OC)cc3c1[C@@H](C2)N(C)CC3 | inactive | –
CC[C@]1(O)C(=O)OCc2c1cc1n(c2=O)Cc2cc3ccccc3nc2-1 | inconclusive: 4.02% | –
c1cc2ccc3cccc4ccc(c1)c2c34 | inactive | –

Compound | activity change, negative = inhibition | Potency
CC(C)CC12CN3CCN(CC(C3)/C1=N/O)C2 | – | inconclusive: 0.00631 µM [rising, full curve, poor fit]
O=C(NCC(c1cccnc1)N1CCN(c2ccc(F)cc2)CC1)Oc1ccccc1 (stereo not drawn) | inconclusive: 3.59% | –
Cc1ccc(-c2nc3ccccc3c(=O)n2-n2cccc2)cc1 | inactive | –
N#Cc1c(/N=C/c2c(O)n(Cc3ccco3)c(=O)[nH]c2=O)sc2c1CCCC2 | inactive | –
Clc1cccc(C(Cl)(Cl)Cl)n1 | inactive | –
CCCCCCCCCc1ccc(O)cc1 | – | active: 5.01 µM
CCCc1cc2c(n1CCO)C(C)C1CN(C(=O)c3ccccc3)C(C)(C(=O)OC)C21 (stereo not drawn) | inactive | –
CCC(=NCc1ccco1)c1c(O)[nH]c(=O)[nH]c1=O | – | inconclusive: 10 µM [rising, single point]
c1ccc(CN2CCC3(CCNCC3)CC2)cc1 | inconclusive: 6.91% | –
[O]=[Cr](=[O])([OH])[O][Cr](=[O])(=[O])[OH] | inconclusive: -9.47% | –
CCC(=Nc1ccc(OC)cc1OC)c1c(O)[nH]c(=O)[nH]c1=O | – | active: 12.6 µM
O=C(Cn1ncc2c3ccccc3n(Cc3ccc(F)cc3)c2c1=O)N1CCC2(CC1)OCCO2 | inconclusive: 11.9% | –
COc1ccc2[nH]cc(CCN)c2c1 | inconclusive: -15.6% | –
CNc1ccc2oc(C[C@@H]3O[C@@]4(CC[C@H]3C)O[C@@H]([C@@H](C)C(=O)c3ccc[nH]3)[C@@H](C)C[C@H]4C)nc2c1C(=O)O | – | inconclusive: 0.316 µM [rising, full curve]
O=C1CC(C(=O)N2CCC3(CC2)OCCO3)CN1CCc1ccccc1 (stereo not drawn) | inconclusive: 3.46% | –
C=CCn1c(O)c(C(=O)CCCCCC)c(=O)[nH]c1=O | inconclusive: -37.6% | –
O=C(O)/C=C\c1ccc[c]([Sb](=[O])([OH])[OH])c1 | inconclusive: 16.4% [at 7.6 µM] | –
CC(C)n1cc2c3c(cccc31)[C@@H]1C[C@H](C(=O)O[C@@H](C)[C@H](C)O)CN(C)[C@H]1C2 | inactive | –
COc1c(C(C)(C)C)cc([N+](=O)[O-])c(C)c1[N+](=O)[O-] | inactive | –
O=c1[nH]c(=O)n(C2CCCCC2)c(O)c1C1NCCc2ccccc21 (stereo not drawn) | inconclusive: -6.95% | –
CC(=NCCCN1CCOCC1)c1c(O)n(-c2ccccc2C)c(=O)[nH]c1=O | inconclusive: -12.3% | –
Cc1cccc(C)c1N | inactive | –
CC(=NCc1ccc2c(c1)OCO2)c1c(O)[nH]c(=O)[nH]c1=O | – | inconclusive: 25.1 µM [rising, single point]
COc1cc2c(cc1OC)[C@]13CCN4CC5=CCO[C@@H]6CC(=O)N2[C@@H]1[C@H]6[C@@H]5C[C@H]43 | inactive | –
C[C@@H]1CC[C@@]2(OC1)O[C@H]1[C@@H](O)[C@H]3[C@@H]4CC[C@H]5C[C@@H](O[C@@H]6O[C@H](CO)[C@H](O[C@@H]7O[C@H](CO)[C@@H](O)[C@H](O[C@@H]8OC[C@@H](O)[C@H](O)[C@H]8O)[C@H]7O[C@@H]7O[C@H](CO)[C@@H](O)[C@H](O[C@@H]8O[C@H](CO)[C@@H](O)[C@H](O)[C@H]8O)[C@H]7O)[C@H](O)[C@H]6O)[C@H](O)C[C@]5(C)[C@H]4CC[C@]3(C)[C@H]1[C@@H]2C | – | inconclusive: 31.6 µM [rising, single point]
O=C(Oc1ccccc1)N1CCC[C@@]2(CCN(C(c3ccccc3)c3ccccc3)C2)C1 | inactive | –
